Experimental data taken from PMC7819943, “Rice protein-binding microarrays: a tool to detect cis-acting elements near promoter regions in rice”.
The list shows a part of the results.

These sequences were tested against T1, OsWOX13 (Oryza sativa, UniProt Q5QMM3 1-267) (assay: protein-binding microarray (RPBM); PBS, 2% BSA, 51.3 ng/ul salmon testes DNA, 50 uM zinc acetate, 200 nM TF, 25 C, 1 h; high values mean tight binding). Conditions: protein: recombinant; tags: N-terminal polyhistidine and DsRed monomer fusion (pET32a); label: CyDye5-dUTP incorporated in the synthesized complementary strand; 3' TTTTT single-stranded linker to array surface; dsDNA, one strand shown.
T1 sequence: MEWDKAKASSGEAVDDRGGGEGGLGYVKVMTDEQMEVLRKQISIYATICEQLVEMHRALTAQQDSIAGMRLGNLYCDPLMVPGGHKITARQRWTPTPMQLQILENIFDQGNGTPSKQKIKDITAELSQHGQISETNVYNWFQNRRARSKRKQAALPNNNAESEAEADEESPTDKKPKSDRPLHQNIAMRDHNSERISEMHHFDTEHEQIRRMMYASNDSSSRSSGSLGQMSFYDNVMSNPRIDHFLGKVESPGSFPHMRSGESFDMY
Procedure, shortened: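 The binding signal is fluorescence intensity per array feature (arbitrary units). Readings came from an Axon 4000B scanner after a washed, 2% BSA-blocked, double-stranded custom Agilent array had been incubated for 1 h at 25 °C with 200 nM protein and 50 µM zinc acetate. The protein was a Ni–NTA-purified transcription factor fused N-terminally to polyhistidine and DsRed, expressed in E. coli BL21-CodonPlus.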

Sequence | binding signal
TAACGTATAATTAATTGAGTTTAATTAAGTATTACAAATTCGGAGTCACCTAGTGCAG | 27000 fluorescence intensity (a.u.)
CATGGATTAATTAGGCTCAATAGATTCGTCTCGGGAATTACGGAGTCACCTAGTGCAG | 10300 fluorescence intensity (a.u.)
TTCCTAATTGTATTTCTATATGGACTCTATACTCTACTTCCGGAGTCACCTAGTGCAG | 25000 fluorescence intensity (a.u.)
ACACATACTATTCAATTTGCCAATAAATTGGTAGCGCATGCGGAGTCACCTAGTGCAG | 18600 fluorescence intensity (a.u.)
GGGTATAATAGAGAAAATTTTCTGGATGGGAGTATGGGACCGGAGTCACCTAGTGCAG | 6590 fluorescence intensity (a.u.)
TATTGACAAAGTTTCAATTGCAGCAATTACGCGAGGATCCCGGAGTCACCTAGTGCAG | 5120 fluorescence intensity (a.u.)
CCCTACTGATCAGATTATCATGGCACACTTTAGCTCATTGCGGAGTCACCTAGTGCAG | 7380 fluorescence intensity (a.u.)
GCCTTAATCACACCATTAATTCTCTAGTCTAAACCTCCAACGGAGTCACCTAGTGCAG | 14600 fluorescence intensity (a.u.)
TTCAAATCAAATATATCAGATCAATACGATCCCGATTCGGCGGAGTCACCTAGTGCAG | 3250 fluorescence intensity (a.u.)
TCTACAAAATTGACGATATAAATGTTGGAGATGTTGAACTCGGAGTCACCTAGTGCAG | 16900 fluorescence intensity (a.u.)
GTCCAATTAACCTAGCTTAAGTTGATCAAGCATCTCTACTCGGAGTCACCTAGTGCAG | 10700 fluorescence intensity (a.u.)
AATAATTTTATGTATCAATTTATTCCATCACCTCATTCTACGGAGTCACCTAGTGCAG | 23700 fluorescence intensity (a.u.)
GCCTAATTAATCCATGATTAGCCTATGTGATGCTATAGTACGGAGTCACCTAGTGCAG | 52700 fluorescence intensity (a.u.)
TTCAACTTATGATTTGATTAGCTAACGTTGAGATTTTACGCGGAGTCACCTAGTGCAG | 22000 fluorescence intensity (a.u.)
ACCCATCAACTCCTCAATCAAATCTTTAACAAAAGTGCATCGGAGTCACCTAGTGCAG | 20200 fluorescence intensity (a.u.)
GATAATTGCGTTGCATTTGTTAAAATGTAAGTAGATAATGCGGAGTCACCTAGTGCAG | 26300 fluorescence intensity (a.u.)
CAGGTGTGATTGAAGTGATGTACTCAACTTACACCCGGGCCGGAGTCACCTAGTGCAG | 54400 fluorescence intensity (a.u.)
AAAATAATGAGTGAATGACAACGTTGTACCGACCGCGCCGCGGAGTCACCTAGTGCAG | 5960 fluorescence intensity (a.u.)
TTGCAATTAACAAAAGCTAGCTACTACATCTAATAGGAATCGGAGTCACCTAGTGCAG | 3750 fluorescence intensity (a.u.)
AGGAGGAGGAGGAGGAGGAGGAGGAGGCGGTGGGAGGGATCGGAGTCACCTAGTGCAG | 8140 fluorescence intensity (a.u.)
TGAGATTATATATAAACTTTTGATTTGAGCGTAAGTTAAGCGGAGTCACCTAGTGCAG | 16400 fluorescence intensity (a.u.)
ATTAATGATTGATAGTCAGTCACTTAGCCATGTTATTTTGCGGAGTCACCTAGTGCAG | 65500 fluorescence intensity (a.u.)
CTGATTTATATATATATATATGTAGACATCCAGAGAGAGACGGAGTCACCTAGTGCAG | 5280 fluorescence intensity (a.u.)
TCATAAAGTTTAATCAATCAAAGAAGCCTGCATGGATTGACGGAGTCACCTAGTGCAG | 18900 fluorescence intensity (a.u.)
ATCCAATTATAATTGGCCCAAAAGTTATACATCATGTAAGCGGAGTCACCTAGTGCAG | 23800 fluorescence intensity (a.u.)
GTGTACTATTGATTGAGGAGTAGCATCCATAATTAGAGTGCGGAGTCACCTAGTGCAG | 29400 fluorescence intensity (a.u.)
GGAATAATGGGTTAATGGTTAATTGCTTAATCTCGCCTTGCGGAGTCACCTAGTGCAG | 19800 fluorescence intensity (a.u.)

Sequence | binding signal
CAGTTTCTCAATCATGAAGCAACGAGATGTGGTACTTGTACGGAGTCACCTAGTGCAG | 6100 fluorescence intensity (a.u.)
TTGTGTGGATTACGTTGACTAATTAATGGCGAATTCGATCCGGAGTCACCTAGTGCAG | 11900 fluorescence intensity (a.u.)
ACTAATTCAGGTAATTAGGGCCAAAGATTATGCGTACCTGCGGAGTCACCTAGTGCAG | 23400 fluorescence intensity (a.u.)
CTGCGTTTATTTGGGTTTATTTGGGGCTGAGAGAGTACATCGGAGTCACCTAGTGCAG | 6060 fluorescence intensity (a.u.)
AATAACTAGAAAAGATGACCGAAATTGGGAAGGCGACTTGCGGAGTCACCTAGTGCAG | 3250 fluorescence intensity (a.u.)
CACACCTTCTGTACGAAATTAATTGACCGCGTGATCGCGTCGGAGTCACCTAGTGCAG | 15500 fluorescence intensity (a.u.)
CCTAACTAATCCATGATTAGCCTATGTGATGCTACAGTAACGGAGTCACCTAGTGCAG | 33500 fluorescence intensity (a.u.)
ATTTGCAAATATTGATTTGTTAAATTTTATATCATTCTTGCGGAGTCACCTAGTGCAG | 12600 fluorescence intensity (a.u.)
TCATCTAATTAATTGGCAAGGTGATATGCGTCCCTGAAAACGGAGTCACCTAGTGCAG | 39500 fluorescence intensity (a.u.)
AGAAAATCATTAGCTGCAATTACTCCCTTCTTCCTTAGATCGGAGTCACCTAGTGCAG | 4300 fluorescence intensity (a.u.)
AGTAATTAAGTAGGATATATGTATTATCTAAACTCTAGGCCGGAGTCACCTAGTGCAG | 15300 fluorescence intensity (a.u.)
TATATGAGATTGCTAGATTGACGACGGTTGTCTGTCTGTCCGGAGTCACCTAGTGCAG | 37600 fluorescence intensity (a.u.)
TTTGATAAACTGGCAAGCACGGGTGAATTTTGCATCAACACGGAGTCACCTAGTGCAG | 13500 fluorescence intensity (a.u.)
GAAGAAATTAACTCATTCATCAATGTGACAAAACCAACGACGGAGTCACCTAGTGCAG | 9080 fluorescence intensity (a.u.)
CCTCACCAATCAGTCAGTACTCAGTACAAGTGAAGCAATCCGGAGTCACCTAGTGCAG | 10400 fluorescence intensity (a.u.)
CACGCCGCCCAATCACCACCTCATATACCTCGCGATCCCTCGGAGTCACCTAGTGCAG | 4870 fluorescence intensity (a.u.)
TTGCTTAATTATTAGTACTGGTCCTAGGACAGTACCAGGTCGGAGTCACCTAGTGCAG | 19400 fluorescence intensity (a.u.)
ATATCAATTAATGCTTCAAGATTAGCACCCATATTATATGCGGAGTCACCTAGTGCAG | 35100 fluorescence intensity (a.u.)
CGAACCCTTAGATTAATTGGTTTGGATTTTGACTCTTAGGCGGAGTCACCTAGTGCAG | 14700 fluorescence intensity (a.u.)
TGTGATTGGTAATTGCCGAACTATTTGAAAATGGTGCGTGCGGAGTCACCTAGTGCAG | 62300 fluorescence intensity (a.u.)
AGTTTCTACCCTTAAATTGATAAATTGAAGTTTCTCAATCCGGAGTCACCTAGTGCAG | 9590 fluorescence intensity (a.u.)
AATTGATTACGGCTTATAGTTTAGGACGAAGGAAGCATTACGGAGTCACCTAGTGCAG | 25000 fluorescence intensity (a.u.)
TTGAACAATAAATTGCTAAAATTGTTAAATGGCATTGACTCGGAGTCACCTAGTGCAG | 11400 fluorescence intensity (a.u.)
GTTTAATGATTAATCTAGTAACATTAATTTTACATTATTGCGGAGTCACCTAGTGCAG | 32300 fluorescence intensity (a.u.)
ATTTAAAATGATTAGACACAACCTACACTTATATATCTGTCGGAGTCACCTAGTGCAG | 21800 fluorescence intensity (a.u.)
ACTAAAATTCCTGTTAGCATATTTTGACATGTAGAATCCACGGAGTCACCTAGTGCAG | 4070 fluorescence intensity (a.u.)
TGGACAGGCCAATCACAGGAAGCACCGCATTTCGTGCCAACGGAGTCACCTAGTGCAG | 11000 fluorescence intensity (a.u.)
